91 compounds from PubChem BioAssay AID463173 (ICCB-Longwood Screening Facility, Harvard Medical School, 2010) can be followed below.

Each structure is given as a SMILES string. Screen size: about 52,000 compounds; about 4,300 (8.3%) were called active. Cut-off read from the data, not from the text of the source: active = survival mostly below about 52% (no sharp cut-off); inactive = mostly above about 56%. Some of the results follow.

The experiment concerns DeltatarO mutant. Put plainly: growth inhibition of S. aureus wild type versus tarO mutant, primary screen, teichoic acid synthesis inhibitors, RN4220, OD600 (AID 463173). The conditions noted are these: OD600, 18 h, hits give low values, screened at 18.75 µg/mL (by protocol).
Turning to `COc1cc2ncc3c(-c4ccccc4)nn(CC(=O)NC4CCCCC4)c3c2cc1OC`, the survival is inactive: 92%.
On to `COc1ccccc1CNC(=O)c1ccc(-n2c(C)cc3c2CCCC3)cc1`, for which the survival was inactive: 87%.
As to `COc1ccc(Cl)cc1NC(=O)c1cnc(N2CCCCC2)c2ccccc12`, the survival is inactive: 78%.
Next, `Cc1c(Cl)cccc1NS(=O)(=O)c1ccc(NS(=O)(=O)c2ccc3c(c2)OCCO3)cc1`: active: 13%; `CCOC(=O)Cn1c(=O)oc2cc(S(=O)(=O)NC(C)c3ccccc3)ccc21` (stereo unspecified): inactive: 66%; `C=C(C)CN1N=C(C(C)(C)C)CC1=O`: inactive: 93%.
Consider `CCc1ccc(CN(C(=O)Nc2cccc(Cl)c2)c2ccccn2)cc1`, for which the survival is inactive: 94%.
Next, `COC(=O)c1nc2n(n1)C(c1cc(OC)ccc1OC)C=C(c1ccc(Br)cc1)N2` (stereo unspecified): inactive: 84%.
Take `CCOC(=O)N1CCN(C(=O)c2ccc3c(c2)N(Cc2cccc(Cl)c2)C(=O)c2ccccc2S3=O)CC1` (stereo unspecified): the survival was inactive: 102%.
Turning to `CC(=O)c1ccc(C(=O)N(Cc2cccnc2)c2nc3c(C)c(C)ccc3s2)cc1`, the survival is active: -1%.
With `O=C1CN(C(=O)COc2ccc(Cl)cc2)C(c2ccc(F)cc2)c2cc(Cl)ccc2N1` (stereo unspecified) the figure was inactive: 45%; with `Cc1ccc(-c2nc3ccccn3c2Nc2ccc3c(c2)OCCO3)o1`, inactive: 45%; with `O=C(Nc1ccc(Br)cc1)C1CCN(c2ncccn2)CC1`, inactive: 67%.
As for `COc1cc(NC(=O)C(=O)Nc2ccc3nc4n(c(=O)c3c2)CCCCC4)cc(OC)c1OC`, the survival is inactive: 85%.
Next, `COC(=O)CNc1ccc(C)c(C)c1`: inactive: 67%; `CCOc1ccc(NC(=O)C2CCN(S(=O)(=O)c3c(C)noc3/C=C/c3ccco3)CC2)cc1`: inactive: 70%.
With `CCOC(=O)c1ccccc1NC(=O)N1CC(C)Oc2ccc(C)cc21` (stereo unspecified) the figure was inactive: 50%.
Take `CCOc1ccc(NC(=O)CCn2cccn2)cc1`: the survival was inactive: 73%.
As to `CCCCOC(=O)/C(C#N)=C\c1ccc(-c2ccc(Cl)cc2)o1`, the survival is inactive: 71%.
`CC(C)c1ccc(NC(=O)CN2C(=O)CSc3ccc(S(=O)(=O)N4CCCC4)cc32)cc1`: the survival was inactive: 83%.
With `Cc1ccc(-c2nc(S(=O)(=O)c3ccccc3)c(SCC(=O)NC3CCCCC3)o2)cc1` the figure was active: 43%.
With `CC(C)CC(NC(=O)C1CCCCC1)C(=O)Nc1cccc(C(F)(F)F)c1` (stereo unspecified) the figure was inactive: 70%; with `COc1ccccc1N1CCN(S(=O)(=O)CCNC(=O)COc2ccccc2F)CC1`, inactive: 83%.
Take `Cc1ccc(CNc2ncccc2-c2nc(-c3ccc(Cl)cc3)no2)cc1`: the survival is inactive: 78%.
As to `O=C(CCCn1c(=O)c2sccc2n(Cc2ccc(Cl)cc2)c1=O)NCc1ccc2c(c1)OCO2`, the survival was inactive: 58%.
Next, `COc1ccc(Br)cc1CNC(=O)CCc1cn(Cc2ccc(C)cc2)c2ccccc12`: inactive: 76%; `CCOC(=O)c1ccccc1NC(=O)c1cc2c(s1)-c1ccccc1SC2`: inactive: 54%.
For the compound `COC(=O)c1sccc1S(=O)(=O)N1CCN(c2ccc(Cl)cc2)CC1`, the survival is inactive: 80%.
With `Cc1scc(CN2CCN(c3ccc(F)cc3)CC2)c1C`, the survival is inactive: 64%.
As to `Cc1cccc(N2CCN(C(=O)c3cccn3-c3nnc(N4CCCCC4)s3)CC2)c1C`, the survival was inactive: 72%.
`CCc1ccc(NC(=O)c2ccc(NS(=O)(=O)c3c(C)noc3C)cc2)cc1`: the survival was inactive: 48%.
For `CCc1cccc(C)c1NC(=O)c1cc(S(=O)(=O)N2CCCCCC2)cn1C`, the survival was inactive: 83%.
Consider `Cc1ccc(Cl)cc1N1CCN(C(=O)c2nn(C)c3c2CS(=O)(=O)c2ccccc2-3)CC1`, for which the survival is active: 58%.
Turning to `CCS(=O)(=O)N(CC(=O)Nc1sc(C)c(C)c1C(N)=O)Cc1ccc(F)cc1`, the survival is inactive: 53%.
With `COc1ccc(CCNC(=O)CCc2cn(Cc3ccc(F)cc3)c3ccccc23)cc1OC` the figure was inactive: 102%.
Take `Cc1ccc(Cl)cc1NC(=O)c1cc(CN2CCCC2)on1`: the survival was inactive: 95%.
On to `CCc1ccc(Nc2nnc(-c3cc4cc(OC)ccc4oc3=O)s2)cc1`, for which the survival was inactive: 90%.
With `Cc1ccc(NC(=O)c2c(C)oc3ccc(O)c(CN(C)Cc4ccccc4)c23)c(C)c1` the figure was inactive: 73%; with `CCCn1nnc(NC(=O)Cc2ccccc2)n1`, inactive: 96%.
With `COc1ccc(OC)c(CNc2ncnc3c2nc2n3CCCC2)c1` the figure was inactive: 86%; with `CCN(C(=O)Cc1c(C(=O)O)c(C)cn1C)c1cccc(Cl)c1`, inactive: 89%; with `CCc1c(C)nc(SCc2nc(-c3ccccc3C)no2)[nH]c1=O`, inactive: 83%.
With `O=C(COc1ccc(F)cc1)Nc1ccc(S(=O)(=O)N(Cc2ccccc2)c2ccccc2)cc1` the figure was inactive: 102%.
As for `CCc1ccc(CNC(=O)c2sc3nc[nH]c(=O)c3c2C)cc1`, the survival is inactive: 82%.
With `CCCNc1ncnc2c1c(-c1ccccc1)cn2-c1ccc(OCC)cc1` the figure was inactive: 73%; with `COc1ccc(NC(=O)CCn2c(-c3ccc(F)cc3)cc(C(C)=O)c2C)c(OC)c1`, inactive: 124%; with `O=c1cc(CSc2ccccc2)[nH]c2ccc(F)cc12`, inactive: 90%.
As for `CCn1c(NC(C)=O)nc2ccccc21`, the survival was inactive: 85%.
Consider `COC(=O)CSc1nnc(CNc2ccc(Cl)cc2)n1Cc1ccccc1`, for which the survival is inactive: 61%.
Take `CCCOc1ccc(C(=O)Nc2ccc(-c3cc4ccccc4oc3=O)c(C)c2)cc1`: the survival was inactive: 71%.
Next, `Cc1ccccc1C(=O)Nc1nnc(S(=O)(=O)N(C)c2ccc(Cl)cc2)s1`: active: 30%.
With `Cn1ncc(Cl)c1C(=O)NC(=S)Nc1sc2c(c1C#N)CCCC2` the figure was inactive: 61%; with `COC(=O)c1sccc1S(=O)(=O)N(CC(=O)Nc1ccc(C)c(F)c1)c1ccc(C)c(C)c1`, active: 17%; with `NC1=NC2=C(CCCC2)C2(CCCCC2)S1`, inactive: 88%.
For `Cc1ccccc1Cn1c(=O)n(CCc2ccccc2)c(=O)c2sc3ccccc3c21`, the survival was inactive: 73%.
Next, `CCOc1ccc(S(=O)(=O)c2c(C(=O)c3ccc(C)c(C)c3)cnc3ccccc23)cc1`: inactive: 80%.
With `Cc1ccc(CNC(=O)CCc2nnc3n(C)c(=O)c4sccc4n23)cc1` the figure was inactive: 53%; with `Cc1ccc(NC(=O)c2sc3nc(-c4ccncc4)ccc3c2N)cc1`, inactive: 131%.
With `CCOc1ccc2nc(NCCNC(=O)Nc3cccc(Cl)c3)c(C#N)cc2c1`, the survival was inactive: 82%.
Next, `CNC(=O)Cn1cc(S(=O)(=O)Cc2ccccc2F)c2ccccc21`: inactive: 93%; `Cc1nn(-c2ccccc2)c(-c2ccccc2)c1C(=O)O`: inactive: 78%.
Consider `CCOc1ccc(CCNC(=O)c2cnc3sc(N4CCC(C)CC4)nn3c2=O)cc1`, for which the survival was inactive: 84%.
With `COC(=O)c1c(-c2cccs2)csc1NC(=O)COc1c(C)ccc(C)c1C` the figure was inactive: 70%.
Next, `COc1ccc(-c2oc3ncn4nc(COc5c(C)cccc5C)nc4c3c2-c2ccc(OC)cc2)cc1`: inactive: 57%; `Cc1nn(C(=O)c2ccccc2F)c(C)c1S(=O)(=O)N1CCCCCC1`: inactive: 83%.
With `CCOc1ccccc1NC(=O)N1CCc2cc(S(=O)(=O)N3CCC(C)CC3)ccc21` the figure was inactive: 69%; with `Cc1cc(Br)ccc1NC(=O)C1CCN(S(=O)(=O)c2cccc3nsnc23)CC1`, inactive: 115%; with `Cc1ccccc1-c1nnc(CN2CCN(c3ccccn3)CC2)o1`, inactive: 120%.
With `COc1ccc(-c2noc(-c3ccc(N4CCN(C)CC4)c([N+](=O)[O-])c3)n2)cc1OC`, the survival is inactive: 50%.
Next, `CCOC(=O)c1ccc(NC(=O)N2CCOc3ccccc32)cc1`: inactive: 71%; `COCCCNC(=O)C(=O)Nc1c2c(nn1-c1cccc(Cl)c1)CSC2`: inactive: 79%; `Cc1cc(C)c(CO)c(C)c1CO`: inactive: 100%.
Next, `CCCOC(=O)CSc1ncnc2sc3c(c12)CCC(C)C3` (stereo unspecified): active: 7%; `COc1ccc(-c2cc(C)no2)cc1S(=O)(=O)NC(C)C`: inactive: 75%.
Next, `Cc1cc(C)c(C#N)c(SCC(=O)Nc2sc3c(c2C#N)CCC(C(C)(C)C)C3)n1` (stereo unspecified): inactive: 75%; `COc1ccc(-c2noc(Cn3c(=O)c4ccccc4n(CC(=O)Nc4cccc(OC)c4)c3=O)n2)cc1`: inactive: 87%.
Regarding `COc1ccc(CN2CCc3nc(SCC(=O)Nc4cc(C)cc(C)c4)[nH]c(=O)c3C2)cc1`, the survival was inactive: 74%.
As for `COc1cc(OC)cc(N2C(=O)N(CC(=O)c3ccc(F)cc3)c3ccccc3S2(=O)=O)c1`, the survival is inactive: 86%.
Next, `Cn1nnnc1SCCCNCc1ccccc1OCc1ccccc1Cl`: inactive: 110%; `COc1ccccc1NC(=O)c1sc2nc(N3CCOCC3)c3c(c2c1N)CC(C)(C)OC3`: inactive: 74%.
Turning to `Cc1ccc(NC(=O)CSc2ncc3c(n2)-c2ccc(Cl)cc2N(C)S3(=O)=O)cc1F`, the survival is inactive: 69%.
With `C=CCN1C(=O)C(CC(=O)NCC)SC1=Nc1ccccc1OC` (stereo unspecified) the figure was inactive: 91%; with `Cc1ccc(Cn2c(SCc3ccc(C(=O)N4CCCCCC4)cc3)nc3ccncc32)cc1`, inactive: 71%.
With `Cc1cccc(NC(=O)c2sc(-n3nc(C)c(Cc4ccc5c(c4)OCO5)c3C)nc2C)c1C` the figure was inactive: 105%.
Next, `CCCCOC(=O)c1ccc(NC(=O)Cn2nnc3sc4c(c3c2=O)CCCC4)cc1`: inactive: 67%; `O=C(NCc1cccs1)c1ccc(Cn2c(SCc3cccc(F)c3)nc3cccnc32)cc1`: inactive: 58%; `O=C(O)C1Cc2c([nH]c3ccccc23)C(Cc2ccccc2)N1` (stereo unspecified): inactive: 70%.
Turning to `CCC(=O)N1CCc2cc(S(=O)(=O)CCC(=O)NCc3ccc(C)cc3)ccc21`, the survival is inactive: 92%.
Turning to `COc1ccccc1-c1nc2c(c(SCC(=O)Nc3c(C)cc(C)cc3C)n1)Cc1c(CO)cnc(C)c1O2`, the survival was inactive: 87%.
With `CCCN1C2CCCC1CC(NC(=O)c1ccc(F)cc1)C2` (stereo unspecified) the figure was inactive: 98%.
Next, `CCc1cccc(NC(=O)C(Cc2ccccc2)NS(=O)(=O)c2ccc3c(c2)oc(=O)n3C)c1` (stereo unspecified): inactive: 101%.
